# The supplement of paper PMC8728848
# Some of the results follow.
# B1: CpGal16 (Clavelina picta) (protein)
# chain: MAKMITNYVGKRIECIMVATDMMSTVFSLASATGDLPFYINFRQRENSIVMNTRVHGKWQYEKSQSSGGMNFYEPFRLVVEVRPSVFKVTVSTMGEEDGITFNLQYSQITIKPDEIVAMHLGYCNLRSELLVTDL
# Key:
# Test in all cases: glycan array binding signal (z-score within array); higher = stronger binding
# Settings in all cases: glycan notation: IUPAC condensed, linker removed
# Neu5Ac(a2-3)GalNAc = target: Neu5Ac(a2-3)GalNAc
# Procedure, shortened: (§1)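 Glycan array data were curated from 3228 arrays in the Consortium for Functional Glycomics database and kept only where the protein sequence was available. Glycan names were converted to IUPAC-condensed notation, and columns mapping to the same glycan were averaged. The binding signal is a within-array Z-score, averaged across arrays of the same protein sequence at different concentrations or buffers and across linkers. Negative Z-scores can be read as non-binding.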
# [1] = target: Neu5Ac(a2-3)GalNAc(b1-4)GlcNAc
# Procedure, shortened: as §1
# [2] = target: Neu5Ac(a2-3)[GalNAc(b1-4)]Gal(b1-4)Glc
# Procedure, shortened: as §1
# [3] = target: Neu5Ac(a2-3)[GalNAc(b1-4)]Gal(b1-4)GlcNAc
# Procedure, shortened: as §1
# [4] = target: Neu5Ac(a2-3)[GalNAc(b1-4)]Gal(b1-4)GlcNAc(b1-3)GalNAc
# Procedure, shortened: as §1
# [5] = target: Neu5Ac(a2-3)[Neu5Ac(a2-6)]GalNAc
# Procedure, shortened: as §1
# Neu5Ac(a2-6)Gal = target: Neu5Ac(a2-6)Gal
# Procedure, shortened: as §1
# [6] = target: Neu5Ac(a2-6)Gal(b1-3)GlcNAc(b1-3)[Gal(b1-4)GlcNAc(b1-6)]Gal(b1-4)Glc
# Procedure, shortened: as §1
# Neu5Ac(a2-6)Gal(b1-4)Glc = target: Neu5Ac(a2-6)Gal(b1-4)Glc
# Procedure, shortened: as §1
# [7] = target: Neu5Ac(a2-6)Gal(b1-4)GlcNAc
# Procedure, shortened: as §1
# [8] = target: Neu5Ac(a2-6)Gal(b1-4)GlcNAc(b1-2)Man
# Procedure, shortened: as §1
# [9] = target: Neu5Ac(a2-6)Gal(b1-4)GlcNAc(b1-2)Man(a1-3)Man(b1-4)GlcNAc(b1-4)GlcNAc
# Procedure, shortened: as §1
# [10] = target: Neu5Ac(a2-6)Gal(b1-4)GlcNAc(b1-2)Man(a1-3)[Gal(b1-4)GlcNAc(b1-2)Man(a1-6)]Man(b1-4)GlcNAc(b1-4)GlcNAc
# Procedure, shortened: as §1
# [11] = target: Neu5Ac(a2-6)Gal(b1-4)GlcNAc(b1-2)Man(a1-3)[GlcNAc(b1-2)Man(a1-6)]Man(b1-4)GlcNAc(b1-4)GlcNAc
# Procedure, shortened: as §1
# [12] = target: Neu5Ac(a2-6)Gal(b1-4)GlcNAc(b1-2)Man(a1-3)[GlcNAc(b1-4)][Neu5Ac(a2-6)Gal(b1-4)GlcNAc(b1-2)Man(a1-6)]Man(b1-4)GlcNAc(b1-4)GlcNAc
# Procedure, shortened: as §1
# [13] = target: Neu5Ac(a2-6)Gal(b1-4)GlcNAc(b1-2)Man(a1-3)[Man(a1-6)]Man(b1-4)GlcNAc(b1-4)GlcNAc
# Procedure, shortened: as §1
# [14] = target: Neu5Ac(a2-6)Gal(b1-4)GlcNAc(b1-2)Man(a1-3)[Neu5Ac(a2-3)Gal(b1-4)GlcNAc(b1-2)Man(a1-6)]Man(b1-4)GlcNAc(b1-4)GlcNAc
# Procedure, shortened: as §1
# [15] = target: Neu5Ac(a2-6)Gal(b1-4)GlcNAc(b1-2)Man(a1-3)[Neu5Ac(a2-6)Gal(b1-4)GlcNAc(b1-2)Man(a1-6)]Man(b1-4)GlcNAc(b1-4)GlcNAc
# Procedure, shortened: as §1
# [16] = target: Neu5Ac(a2-6)Gal(b1-4)GlcNAc(b1-2)Man(a1-3)[Neu5Ac(a2-6)Gal(b1-4)GlcNAc(b1-2)Man(a1-6)]Man(b1-4)GlcNAc(b1-4)[Fuc(a1-6)]GlcNAc
# Procedure, shortened: as §1
# [17] = target: Neu5Ac(a2-6)Gal(b1-4)GlcNAc(b1-2)Man(a1-6)Man(b1-4)GlcNAc(b1-4)GlcNAc
# Procedure, shortened: as §1
# [18] = target: Neu5Ac(a2-6)Gal(b1-4)GlcNAc(b1-2)Man(a1-6)[Gal(b1-4)GlcNAc(b1-2)Man(a1-3)]Man(b1-4)GlcNAc(b1-4)GlcNAc
# Procedure, shortened: as §1
# [19] = target: Neu5Ac(a2-6)Gal(b1-4)GlcNAc(b1-2)Man(a1-6)[GlcNAc(b1-2)Man(a1-3)]Man(b1-4)GlcNAc(b1-4)GlcNAc
# Procedure, shortened: as §1
# [20] = target: Neu5Ac(a2-6)Gal(b1-4)GlcNAc(b1-2)Man(a1-6)[Man(a1-3)]Man(b1-4)GlcNAc(b1-4)GlcNAc
# Procedure, shortened: as §1
# [21] = target: Neu5Ac(a2-6)Gal(b1-4)GlcNAc(b1-2)[Neu5Ac(a2-6)Gal(b1-4)GlcNAc(b1-4)]Man(a1-3)[GlcNAc(b1-4)][Neu5Ac(a2-6)Gal(b1-4)GlcNAc(b1-2)[Neu5Ac(a2-6)Gal(b1-4)GlcNAc(b1-6)]Man(a1-6)]Man(b1-4)GlcNAc(b1-4)GlcNAc
# Procedure, shortened: as §1
# [22] = target: Neu5Ac(a2-6)Gal(b1-4)GlcNAc(b1-2)[Neu5Ac(a2-6)Gal(b1-4)GlcNAc(b1-4)]Man(a1-3)[GlcNAc(b1-4)][Neu5Ac(a2-6)Gal(b1-4)GlcNAc(b1-4)Man(a1-6)]Man(b1-4)GlcNAc(b1-4)GlcNAc
# Procedure, shortened: as §1
# [23] = target: Neu5Ac(a2-6)Gal(b1-4)GlcNAc(b1-2)[Neu5Ac(a2-6)Gal(b1-4)GlcNAc(b1-6)]Man(a1-6)[Neu5Ac(a2-6)Gal(b1-4)GlcNAc(b1-2)Man(a1-3)][GlcNAc(b1-4)]Man(b1-4)GlcNAc(b1-4)GlcNAc
# Procedure, shortened: as §1
# [24] = target: Neu5Ac(a2-6)Gal(b1-4)GlcNAc(b1-3)Gal(b1-3)GlcNAc
# Procedure, shortened: as §1
# [25] = target: Neu5Ac(a2-6)Gal(b1-4)GlcNAc(b1-3)Gal(b1-4)GlcNAc
# Procedure, shortened: as §1
# [26] = target: Neu5Ac(a2-6)Gal(b1-4)GlcNAc(b1-3)Gal(b1-4)GlcNAc(b1-2)Man(a1-3)[Neu5Ac(a2-6)Gal(b1-4)GlcNAc(b1-3)Gal(b1-4)GlcNAc(b1-2)Man(a1-6)]GalNAc
# Procedure, shortened: as §1
# [27] = target: Neu5Ac(a2-6)Gal(b1-4)GlcNAc(b1-3)Gal(b1-4)GlcNAc(b1-3)Gal(b1-4)GlcNAc
# Procedure, shortened: as §1
# [28] = target: Neu5Ac(a2-6)Gal(b1-4)GlcNAc(b1-3)Gal(b1-4)GlcNAc(b1-3)Gal(b1-4)GlcNAc(b1-2)Man(a1-3)[Neu5Ac(a2-6)Gal(b1-4)GlcNAc(b1-3)Gal(b1-4)GlcNAc(b1-3)Gal(b1-4)GlcNAc(b1-2)Man(a1-6)]GalNAc
# Procedure, shortened: as §1
# [29] = target: Neu5Ac(a2-6)Gal(b1-4)GlcNAc(b1-3)Gal(b1-4)GlcNAc(b1-3)GalNAc
# Procedure, shortened: as §1
# [30] = target: Neu5Ac(a2-6)Gal(b1-4)GlcNAc(b1-3)Gal(b1-4)GlcNAc(b1-3)[Neu5Ac(a2-6)Gal(b1-4)GlcNAc(b1-3)Gal(b1-4)GlcNAc(b1-6)]GalNAc
# Procedure, shortened: as §1
# [31] = target: Neu5Ac(a2-6)Gal(b1-4)GlcNAc(b1-3)Gal(b1-4)GlcNAc(b1-6)[Gal(b1-3)]GalNAc
# Procedure, shortened: as §1
# [32] = target: Neu5Ac(a2-6)Gal(b1-4)GlcNAc(b1-3)Gal(b1-4)[Fuc(a1-3)]GlcNAc(b1-3)Gal(b1-4)[Fuc(a1-3)]GlcNAc
# Procedure, shortened: as §1
# [33] = target: Neu5Ac(a2-6)Gal(b1-4)GlcNAc(b1-3)GalNAc
# Procedure, shortened: as §1
# [34] = target: Neu5Ac(a2-6)Gal(b1-4)GlcNAc(b1-3)[Neu5Ac(a2-6)Gal(b1-4)GlcNAc(b1-6)]GalNAc
# Procedure, shortened: as §1
# [35] = target: Neu5Ac(a2-6)Gal(b1-4)GlcNAc(b1-6)GalNAc
# Procedure, shortened: as §1
binder,measurement,setting,value
B1,glycan array binding signal (z-score),Neu5Ac(a2-3)GalNAc,-0.152
same,glycan array binding signal (z-score),[1],-0.258
same,glycan array binding signal (z-score),[2],-0.38
same,glycan array binding signal (z-score),[3],-0.468
same,glycan array binding signal (z-score),[4],-0.325
same,glycan array binding signal (z-score),[5],-0.237
same,glycan array binding signal (z-score),Neu5Ac(a2-6)Gal,-0.316
same,glycan array binding signal (z-score),[6],-0.52
same,glycan array binding signal (z-score),Neu5Ac(a2-6)Gal(b1-4)Glc,-0.291
same,glycan array binding signal (z-score),[7],-0.456
same,glycan array binding signal (z-score),[8],-0.459
same,glycan array binding signal (z-score),[9],-0.232
same,glycan array binding signal (z-score),[10],-0.325
same,glycan array binding signal (z-score),[11],-0.373
same,glycan array binding signal (z-score),[12],-0.437
same,glycan array binding signal (z-score),[13],-0.395
same,glycan array binding signal (z-score),[14],-0.252
same,glycan array binding signal (z-score),[15],-0.174
same,glycan array binding signal (z-score),[16],-0.05
same,glycan array binding signal (z-score),[17],-0.39
same,glycan array binding signal (z-score),[18],-0.473
same,glycan array binding signal (z-score),[19],-0.424
same,glycan array binding signal (z-score),[20],-0.382
same,glycan array binding signal (z-score),[21],-0.407
same,glycan array binding signal (z-score),[22],-0.326
same,glycan array binding signal (z-score),[23],-0.39
same,glycan array binding signal (z-score),[24],-0.382
same,glycan array binding signal (z-score),[25],-0.442
same,glycan array binding signal (z-score),[26],-0.175
same,glycan array binding signal (z-score),[27],-0.379
same,glycan array binding signal (z-score),[28],0.523
same,glycan array binding signal (z-score),[29],-0.48
same,glycan array binding signal (z-score),[30],0.087
same,glycan array binding signal (z-score),[31],-0.287
same,glycan array binding signal (z-score),[32],-0.419
same,glycan array binding signal (z-score),[33],-0.29
same,glycan array binding signal (z-score),[34],-0.409
same,glycan array binding signal (z-score),[35],-0.02
